Laboratory results as given in the RNAGym collection of RNA variant scans (doi:10.1073/pnas.2313332121).
This sample is rich in variants without activity.

B1: TPR 5TU (parent)
chain: GGAUCUUCUCGAUCUAACAAAAAAGACAAAUCUGCCACAAAGCUUGAGAGCAUCUUCGGAUGCAGAGGCGGCAGCCUUCGGUGGCGCGAUAGCGCCAACGUUCUCAACUAUGACACGCAAAACGCGUGCUCCGUUGAAUGGAGUUUAUCAUG

Variants of: B1
Test: polymerase ribozyme fitness, log enrichment relative to wild type (log ratio); higher = more active; in vitro selection for triplet polymerase activity
Outline: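 Each subunit of a heterodimeric triplet polymerase ribozyme was mutagenized into a library by PCR, transcribed, and subjected to one round of in vitro selection, run in triplicate. Libraries were annealed with a biotinylated primer, the partner subunit and triplets, incubated frozen at −7 °C, and extended constructs were gel-excised, captured on streptavidin beads and recovered by RT-PCR. Input and output libraries were sequenced on Illumina, keeping genotypes with ≥10 input reads and ≥1 read per output. Fitness is log base 2 of genotype enrichment divided by wild-type enrichment, from inverse-variance-weighted replicate averages.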

Row | Variant | polymerase ribozyme fitness (log ratio)
1 | G50C G86U A119C | ≤ -4.2
2 | A49U U53A U55A G88A A115G C123U | ≤ -4.2
3 | G50A U90C C96G A115U | ≤ -4.2
4 | G50C C116A G140A | ≤ -4.2
5 | C51A C79A C99U | ≤ -4.2
6 | G50U C57U C76A C103G A147C | ≤ -4.2
7 | C51G C57A C69G G133U | ≤ -4.2
8 | A49U G67A U77G C99A U109G U111G G133A G143U A147G | ≤ -4.2
9 | G50A C96A | -2.68
10 | A52G A73G G88C C108G G124A G133U G140A A142G | ≤ -4.2
11 | G50A G83C C93G A97C C132G A137G G140U | ≤ -4.2
12 | C51A U53G G86A | ≤ -4.2
13 | C51U U55A U56A G58C U82A A150C | ≤ -4.2
14 | C51A C63U C85A G126A C129A G140A | ≤ -4.2
15 | C51A C57U U146G | -1.67
16 | C51U U90G C95G G126C A142G U148A | ≤ -4.2
17 | A52C C57U G67A G80U A121C | ≤ -4.2
18 | A52G C93U C96U G136C A138G U146A | ≤ -4.2
19 | C51U A52C U82G U135G | -3.54
20 | C51A C87A G141U A150G | ≤ -4.2
21 | G50A G84A C95G U146C | -0.861

Row | Variant | polymerase ribozyme fitness (log ratio)
22 | A52G A106G | -0.771
23 | A52C C54A G81U G86U G143U A150C | ≤ -4.2
24 | A49U U53G C54A G74A G94A G152U | ≤ -4.2
25 | G50C U82A G136C | ≤ -4.2
26 | G50U C95G U151A | ≤ -4.2
27 | G50A A91G G100A G140U A147C | ≤ -4.2
28 | G50A A91U C99U C103G C108U A137C G141C | ≤ -4.2
29 | A52C G84A | -1.32
30 | C51U C75G G81A A91U A121G G124C U148C | ≤ -4.2
31 | G50U C79G A91U C108U U134C | ≤ -4.2
32 | C51U C54G C85U U104C A120G U127G U144C | ≤ -4.2
33 | C51G G86U A142C G143C | ≤ -4.2
34 | G50A G58A C99U U144A | ≤ -4.2
35 | C51A A52G G83U A150G | ≤ -4.2
36 | A52G C54A U148G | ≤ -4.2
37 | G50C C54U U55C C85G A142C | ≤ -4.2
38 | A49U U53A A91U | ≤ -4.2
39 | G50C G58A A60C G71U A89G G92C G128C | ≤ -4.2
40 | C51A G58C | -2.22
41 | A52G A73G | -0.266
42 | A52C C85A U90C G133C U145C | ≤ -4.2

Row | Variant | polymerase ribozyme fitness (log ratio)
43 | A52C C57G C76G G84U C85A C118A C149U | ≤ -4.2
44 | C51A C85G U151C | ≤ -4.2
45 | G50U C57U G92C | -0.983
46 | G50A G84A | -2.43
47 | A52G C72U C85U A110U | ≤ -4.2
48 | G50A A64C U82G U102G | ≤ -4.2
49 | A52G A60G G81U A89C C95G U102C G136U A137U | ≤ -4.2
50 | A52G A98U | -2.02
51 | G50A U134A | -3.21
52 | G50A U55A C87G C103U C116G | ≤ -4.2
53 | A52C C85U G94C G141C | -3.45
54 | G50A U78G A91G A113C C131U G152C | ≤ -4.2
55 | G50A A110G | -3.88
56 | G50C C87U C103G A121G C123U C125G | ≤ -4.2
57 | G50U A52U G84U A89G G92C | ≤ -4.2
58 | G50A C57G A89C A110U U135C G140U | ≤ -4.2
59 | C51U A73G G92U G124A | -0.37
60 | C51A U53A C54A G81C A122C U134G | ≤ -4.2
61 | C51U G68A G92A U109C | ≤ -4.2
62 | C51U C85U G140C | ≤ -4.2
63 | A49U U82G | -0.129

Row | Variant | polymerase ribozyme fitness (log ratio)
64 | C51A G68A U78A C87G | ≤ -4.2
65 | C51A U55A G68C C99G G140A | ≤ -4.2
66 | A49U U61A G83C C85A C87G | ≤ -4.2
67 | C51U G86U C108U | ≤ -4.2
68 | A52C C85U A147G | -3.76
69 | C51U U134A | -2.32
70 | G50C A142U | -3.9
71 | A52G C54U G58U C72U G88A G152A | ≤ -4.2
72 | A52C G84U C96U U144A | ≤ -4.2
73 | G50C U53A C96U U139A A150C | ≤ -4.2
74 | G50C G86C C95A C105A C125G | ≤ -4.2
75 | G50A G86C C125G G126A | ≤ -4.2
76 | C51A C85A U134C | -2.88
77 | C51U G58A C79G G84U | ≤ -4.2
78 | A52C G68C A89C | ≤ -4.2
79 | C51U U53A U61A A97C G140A G143A | ≤ -4.2
80 | G50A C93G A106G C114A | ≤ -4.2
81 | C51U G80A G86A U127G C131U A137G | ≤ -4.2
82 | G50C G141U | -2.26
83 | A52C G86A | -1.2
84 | A52C G86C | -4.07
